Test results: PubChem BioAssay AID493208 (National Center for Advancing Translational Sciences (NCATS), 2011)
Out of some 44,000 compounds screened, about 340 (0.77%) were called active. Not shown: some 5% with an inconclusive outcome. Calls come from the whole dose curve; as a rule, active = well fitted inhibition curve with a large enough effect; inconclusive = small, poorly fitted or top-dose-only effect; inactive = flat fitted curve, though single readings scatter. The list shows a part of the results.

Assay: Acumen qHTS Assay for Inhibitors of the mTORC1 Signaling Pathway in MEF (Tsc2-/-, p53-/-) Cells: Sytravon; note: nearly all actives have a fitted effect of over 50% in size;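 for activity change, negative = inhibition: plate controls were DMSO for no effect and rapamycin for full effect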
Settings: phospho-rpS6 immunofluorescence/PI, 24 h; series mostly up to 38.3 µM; activity change, negative = inhibition: at the top concentration
Summary of the method: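 Cell-based qHTS: Tsc2-/- p53-/- MEF, 24 h cpd, 37 °C; fix/perm, anti-phospho-S6 Alexa-488 + PI; Acumen 488 nm scan; pS6/PI ratio, % positive cells; rapamycin 7.5 nM = inhibition ref; PI count = viability.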
Potency is the fitted concentration of half-maximal effect.

Activity change, negative = inhibition, inactive:
CCOC(=O)c1cc(-c2ccccc2)n(-c2cccc(C(=O)Nc3ccc(OC)cc3)c2)c1C -0.786%
COc1ccc(-c2[nH]ncc2C(=O)NCc2ccccc2C)cc1 0.117%
Cc1onc(-c2ccccc2Cl)c1C(=O)Oc1cc(F)cc(F)c1 4.38%
COC(=O)c1ccccc1NC(=O)Cn1c(=O)n(-c2cccc(OC)c2)c(=O)c2c(C)c(C(=O)N(C)C)sc21 1.64%
CCC(C(=O)NCCc1ccc(SC)cc1)n1nc(C)c2sc3ccccc3c2c1=O (stereo unspecified) 2.23%
CC(=O)N1CCCc2cc(S(=O)(=O)N3CCC(C(=O)NCc4ccc(C)cc4)CC3)ccc21 -0.808%
CCN(CC)CCNC(=O)c1cn(CC)c2ccc(S(=O)(=O)N3CCOCC3)cc2c1=O -0.101%
Cc1ccc(CCNC(=O)Cn2nc(-c3ccc(C)cc3)ccc2=O)cc1 -21.1%
COc1ccc(OCC(=O)OCc2cc(=O)n3nc(C4CCCCC4)sc3n2)cc1 0%
O=C(Cn1ncc2ccc(Cl)cc21)NCc1ccc(F)cc1 -14.8%
CSc1cccc(Nc2nc3c(S(=O)(=O)c4ccccc4)nnn3c3ccc(Cl)cc23)c1 -0.107%
Cc1ccc(C)c(NC(=O)CSc2ncc(S(=O)(=O)c3ccc(C)c(Cl)c3)c(=O)[nH]2)c1 5.98%
O=C(c1ccc2c(c1)N(Cc1ccc(F)cc1)C(=O)c1ccccc1S2=O)N1CCC(Cc2ccccc2)CC1 (stereo unspecified) -4.58%
COc1ccc(Cn2c(SCc3ccc(C(=O)NC(C)C)cc3)nc3cccnc32)cc1 -2.11%
COc1ccccc1NC(=O)c1cccc(S(=O)(=O)N2CCCCCC2)c1 6.27%
Cc1c(Cl)cccc1NC(=O)Nc1nnc(N2CCCCCC2)s1 -7.44%
Cc1ccc(C(=O)Nc2cccc(C(=O)O)c2)cc1S(=O)(=O)N1CCCC1 -5.52%
C=C(C)CSc1nc2sc3c(c2c(=O)n1-c1ccccc1)CC(C(C)C)OC3 (stereo unspecified) -5.63%
CCC1CN(C(=O)N2CCC(C(=O)NCc3cccc(C)c3)CC2)c2ccccc2O1 (stereo unspecified) 8.34%
O=C(Cn1c(=O)nc(-c2ccccc2F)c2cc(Cl)ccc21)N1CCN(c2ccccc2F)CC1 7.01%
CCCCC(CC)CNC(=O)CN1C(=O)CSc2ccc(S(=O)(=O)N3CCOCC3)cc21 (stereo unspecified) -2.34%
CCOc1ccccc1N(CC)C(=O)c1cc2c(=O)[nH]c3ccc(C)cc3c2s1 -11.8%
COC(=O)c1scc(-c2ccc(C)cc2)c1S(=O)(=O)Nc1cc(OC)c(OC)c(OC)c1 0.181%
COc1ccc(CNC(=O)c2c3c(nc4ccccc24)C(=O)N(C2CCCCC2)C3)c(OC)c1 9.94%
O=C(Cn1cc(S(=O)(=O)Cc2cccc(Cl)c2)c2ccccc21)NCCc1ccccc1 -3.78%
Clc1cccc(-n2ncc3c(N4CCCCC4)ncnc32)c1 -2.35%
Cc1ccc(NC(=O)/C(C#N)=C/c2ccc(C(C)C)cc2)cc1C -3.23%
CCN(c1cccc(C)c1)S(=O)(=O)c1ccc2[nH]cc(C(=O)NCCCOC)c(=O)c2c1 -0.849%
CC(=O)Nc1nonc1-c1nnc(SCC(=O)N(C)c2ccccc2)n1C 1.27%
COc1ccc(CNC(=O)C(=O)Nc2ccc(OC)cc2OC)cc1 -1.6%
CCOC(=O)c1cnc2c(C)c(Cl)ccc2c1NCCc1ccccc1 3.05%
COc1cccc(NC(=O)CN2C(=O)c3ccccc3Sc3ncccc32)c1 -4.27%
Cc1ccc(-n2nc(C)c3c(C(F)(F)F)cc(-c4cccnc4)nc32)cc1Cl -0.589%
COc1ccccc1C(=O)Nc1c(C(=O)NC(C)(C)C)oc2ccccc12 0.419%
COc1ccc(S(=O)(=O)N2CCN(c3ccccc3OC)CC2)cc1 -14.1%
CCOC(=O)c1ccc(NC(=O)c2cn3c4c(ccc(Cl)c4c2=O)OC(C)C3)cc1 (stereo unspecified) -0.312%
COc1cc(OC)c(N(C)C(=O)Nc2cn(CC(C)C)c(=O)c3ccccc23)cc1Cl 2.82%
CCCc1nn2c(=O)cc(COC(=O)CNC(=O)COc3ccc(C)cc3)nc2s1 3%
Cc1ccc(-c2nc(C)c(CCNC(=O)c3ccccc3Br)s2)cc1 -10.7%
CC1CCN(C(=O)CSc2nc(-c3ccc(F)cc3)cc(C(F)(F)F)n2)CC1 4.95%
CCOC(=O)c1sc(NC(=O)c2c(-c3ccccc3)c(-c3ccccc3)nn(C)c2=O)nc1C 3.01%
CCc1ccc(Nc2nc3ccccc3nc2NS(=O)(=O)c2ccccc2)cc1 -13.9%
Cc1cccc(-n2c(=O)c3ccccc3n(Cc3ccc(F)cc3)c2=O)c1 -8.52%
COc1ccc(NC(=O)C2=C(C)Nc3nc(SCc4ccc(Cl)cc4)nn3C2c2cccc(OC)c2OC)cc1 (stereo unspecified) -27.4%
O=C(Cn1c(=O)nc(-c2ccccc2)c2ccccc21)Nc1ccc(Cl)cc1F -1.23%
Cc1ccc(NC(=O)/C=C/c2ccccc2Cl)cc1Cl 5.71%
Cc1cc2c(cc1S(=O)(=O)Nc1cc(C(F)(F)F)cc(C(F)(F)F)c1)OCC(=O)N2 4.02%
Cc1nc2cccnc2n1C1CCN(C(=O)Nc2ccc(Cl)cc2)CC1 6.23%
COC(=O)Cc1c(C)c2ccc3c(c2oc1=O)CN(Cc1ccccc1Cl)CO3 -1.83%
CCc1c(C)sc2c1CCN(Cc1ccccc1F)C2c1ccccc1 (stereo unspecified) 8.6%
CCOc1ccc(-c2c(C)nn3c(C)c(C(=O)NCCc4ccc(C)cc4)cnc23)cc1OCC -29%
O=C(NCCSc1c[nH]c2ccccc12)c1ccccc1Cl 1.19%
CNC(=O)CN1C(=O)COc2ccc(S(=O)(=O)N3CCC(C)CC3)cc21 0.857%
COCCNC(=O)c1ccccc1NC(=O)c1nsc2ccccc12 -19.4%
COc1ccc2[nH]cc(CCN=C(NC(=O)c3ccccc3OC)Nc3nc(C)cc(C)n3)c2c1 -10.8%
CCc1cc2c(cc3c(=O)n(CC(=O)NCCc4ccc(OC)cc4OC)nc(CC)n32)s1 2.5%
Cc1ccc(-n2cnnn2)cc1S(N)(=O)=O -21.6%
COC(=O)Cn1c(SCCOc2ccccc2OC)nc2ccccc21 -0.519%
Cc1cc2[nH]c(=O)c(=O)[nH]c2cc1S(=O)(=O)N1CCN(c2cccc(Cl)c2)CC1 -6.09%
Cc1ccc(NC(=O)c2ccc(NC(=O)CCS(=O)(=O)c3cccs3)cc2)cc1F -16.2%
COc1cccc(Cn2cc(C(=O)c3ccc(Cl)cc3)c(=O)c3ccccc32)c1 0.303%
Cc1ccccc1Nc1c(-c2ccc(N3CCOCC3)cc2)nc2ccc(Br)cn12 3.31%
CCOC(=O)C1(C)C=C(Nc2cccc(C(=O)O)c2)C(=O)N1c1ccccc1 (stereo unspecified) 6.58%
Cc1ccc(CNC(=O)C(=O)NCC(c2ccc3c(c2)OCO3)N2CCOCC2)cc1 (stereo unspecified) 1.1%
Cc1ccc2c(=O)cc(C(=O)Nc3c(C)n(C)n(-c4ccccc4)c3=O)oc2c1 1.04%
COc1cc(NC(=O)CSc2nc3nc(C)c(Cc4ccccc4Cl)c(C)n3n2)cc(OC)c1 8.6%
Cc1ccc(Nc2ncnc3sc4c(c23)CCC(C)C4)cc1C (stereo unspecified) -16.5%
CCCOc1ccc(CNC(=O)C(NS(=O)(=O)c2cccs2)C(C)C)cc1 (stereo unspecified) 0%
COc1cc(Cl)c(C)cc1NC(=O)c1cnc(N2CCCCC2)c2ccccc12 -2.01%
COc1cc2nc(SCc3ccc(C)cc3)n3nc(CCn4nc(C)cc4C)nc3c2cc1OC 0.579%
CC(C)Cn1c(-c2cccc(Br)c2)nc2ccccc21 -0.225%
COC(=O)C(CCSC)Nc1ncnc2onc(-c3ccc(F)cc3)c12 (stereo unspecified) -13%
Cc1cc(C)cc(NC(=O)C(Cc2ccccc2)NS(=O)(=O)c2ccc3c(c2)CCC(=O)N3)c1 (stereo unspecified) 0.37%
CCOc1ccccc1NC(=O)C(=O)Nc1ccc2nc3n(c(=O)c2c1)CCCCC3 -1.82%
OCc1cnc(SCc2ccccc2F)n1Cc1ccc(F)cc1 3.01%
O=C(c1ccccc1)N1c2nc(-c3ccco3)nn2C2(CCCCC2)[C@@H]2CCCC[C@@H]21 0.885%
Cc1cc(C)cc(NC(=O)Cc2noc3ccccc23)c1 -1.26%
Cc1cc(C)c(NC(=O)C2CCCN(S(=O)(=O)c3c(C)noc3C)C2)c(C)c1 (stereo unspecified) -0.151%
Cc1ccccc1OCc1ccc(-c2nc(C#N)c(N3CCN(c4cccc(Cl)c4)CC3)o2)o1 -0.656%
CCCCCCOc1ccc(C2C(=O)N(C3CCCCC3)CC(=O)N2C2CCCCC2)cc1 (stereo unspecified) 7.9%
CCN(CC)S(=O)(=O)c1ccc(C(=O)NCCSc2c(-c3ccccc3)[nH]c3ccccc23)cc1 0%
CCC(=O)N1CCc2cc(S(=O)(=O)NCCC(=O)Nc3ccc(N(CC)CC)cc3C)ccc21 -19.2%
O=C(c1ccc2c(c1)N(Cc1ccc(F)cc1)C(=O)c1ccccc1S2(=O)=O)N1CCCCC1 0.0372%
NC(=O)c1cc(S(=O)(=O)N2CCN(c3cccc(C(F)(F)F)c3)CC2)cs1 1.52%
O=C(CSc1nc2ccccc2nc1Cc1ccc(Cl)cc1)N1CCN(c2ccccc2)CC1 3.45%
Cc1ccc(-n2ncc(C(=O)NCc3ccco3)c2C2CCN(C(=O)OC(C)(C)C)CC2)cc1C -5.89%
COc1cc(NC(=O)c2cc3cc4ccc(C)cc4nc3o2)cc(OC)c1OC -5.36%
CCc1ccccc1N(C)C(=O)C1CCCN(c2ncnc3c2nc2n3CCCCC2)C1 (stereo unspecified) -11.8%
Cc1c(C(=O)Nc2cc(F)ccc2F)sc2nc(-c3ccc(F)cc3)cn12 -5.18%
CCc1c(C)c2cc3c(c(C)c2oc1=O)OCN(CCc1ccccc1F)C3 -6.99%
CCOC(=O)c1c(NC(=O)c2ccc(OCC)c(Br)c2)sc2c1CCCC2 -1.51%
Cc1cc2oc(=O)c(CC(=O)NCCc3ccccc3F)c(C)c2c2occ(C(C)(C)C)c12 1.29%
CC(=O)Nc1cc(C(=O)NCc2ccc(F)cc2)ccc1Sc1ccc(F)cc1 6.33%
CCCCN(C(=O)C1CCC(CNS(=O)(=O)c2cccc3nsnc23)CC1)c1ccccc1 (stereo unspecified) -1.02%
O=c1c2cc3c(cc2nc2sc(Nc4cccc([N+](=O)[O-])c4)nn12)OCO3 11%

Potency, active:
CCCCOC(=O)c1ccc(NC(=O)c2sc3nc(C)cc(C)c3c2N)cc1 10.4 µM
